In publication PMC6919601, “Identification of Plasmodium dipeptidyl aminopeptidase allosteric inhibitors by high throughput screening” (PLoS ONE, 2019):
The whole screen tested about 110,000 compounds, of which about 230 (0.21%) showed an effect of 50% or more. Some of the results follow.

Each molecule was assayed against DPAP1 (Plasmodium falciparum, UniProt Q8IIJ9) (assay: primary screen, percent inhibition; read by cleavage of a fluorogenic dipeptide substrate; higher = more effect of the substance).
Set-up: species or system P. falciparum D10 trophozoite lysates; single well
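Note: 30 min substrate incubation versus DMSO and 10 µM JCP410 controls.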

Sequence of DPAP1 (Q8IIJ9 whole entry, looked up): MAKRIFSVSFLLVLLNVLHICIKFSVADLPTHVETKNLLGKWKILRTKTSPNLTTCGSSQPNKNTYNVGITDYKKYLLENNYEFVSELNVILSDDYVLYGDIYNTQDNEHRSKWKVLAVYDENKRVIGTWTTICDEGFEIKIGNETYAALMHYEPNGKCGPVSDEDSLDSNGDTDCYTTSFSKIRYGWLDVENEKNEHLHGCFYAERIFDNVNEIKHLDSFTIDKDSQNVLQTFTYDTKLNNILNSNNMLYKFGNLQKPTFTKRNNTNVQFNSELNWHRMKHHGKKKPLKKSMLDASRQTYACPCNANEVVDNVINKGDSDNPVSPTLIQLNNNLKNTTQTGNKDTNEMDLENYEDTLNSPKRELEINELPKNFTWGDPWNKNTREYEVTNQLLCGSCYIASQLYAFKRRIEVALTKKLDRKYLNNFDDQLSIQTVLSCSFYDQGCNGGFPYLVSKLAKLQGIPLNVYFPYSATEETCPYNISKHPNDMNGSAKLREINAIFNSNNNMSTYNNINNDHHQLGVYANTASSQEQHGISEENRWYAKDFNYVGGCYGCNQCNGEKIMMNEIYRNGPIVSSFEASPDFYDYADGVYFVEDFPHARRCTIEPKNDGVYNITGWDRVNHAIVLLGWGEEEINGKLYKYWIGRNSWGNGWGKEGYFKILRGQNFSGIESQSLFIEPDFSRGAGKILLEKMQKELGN

| SMILES | % Inhibition @ 10 uM [%] |
| --- | --- |
| Cc1cccc(-c2noc(CCC(=O)NCC(C)C)n2)c1 | 6.01 |
| COc1cccc(Nc2nc(-c3ccc(S(=O)(=O)N4CCCCC4)cc3)cs2)c1 | 4.16 |
| Cc1ccc(NC(=O)Cn2nc(C(F)(F)F)cc2C2CC2)cc1 | 1.59 |
| CCOC(=O)N1CCN(S(=O)(=O)N2CCCC(C(=O)NC(C)c3ccccc3)C2)CC1 (stereo not drawn) | -4.97 |
| Cc1cc(NC(=O)c2cc3nc(-c4ccccc4)cc(-c4ccccc4)n3n2)no1 | 3.54 |
| COc1ccc2c(CNCCCc3ccccc3)c(C(=O)O)n(Cc3ccccc3C)c2c1 | 1.69 |
| CCOC(=O)C1=C(C(F)(F)F)Nc2ncnn2C1c1ccc(Br)cc1 (stereo not drawn) | -1.62 |
| CCOc1cccc(C(=O)Nc2nn3c(-c4ccco4)nnc3s2)c1 | 0.522 |
| COC(=O)c1cc(C2CC2)[nH]n1 | -1.6 |
| O=S(=O)(O)c1nnc2n(Cc3ccccc3)c3ccccc3n12 | -0.45 |
| Cc1ccc(S(=O)(=O)N(CC(=O)Nc2ccccc2C(=O)O)c2cccc(Cl)c2C)cc1 | 4.74 |
| CS(=O)(=O)N(CC(=O)NC1CC1)c1cc(C(F)(F)F)ccc1Cl | 6.69 |
| CCOc1cc(C2C(C#N)=C(N)Oc3[nH]nc(-c4ccc5c(c4)OCO5)c32)ccc1OC (stereo not drawn) | 1.03 |
| CCOC(=O)CSc1nc(-c2ccccc2)cc(-c2ccccc2OC)c1C#N | 6.15 |
| Cc1cc(C)n(C(=O)C2CC=CCC2C(=O)O)n1 (stereo not drawn) | 3.94 |
| COc1ccc(-c2noc(O)n2)cc1 | -0.551 |
| COc1ccc(S(=O)(=O)N(CC(=O)NC2CCCCC2)c2cc(C)cc(C)c2)cc1OC | -13.4 |
| COc1ccc(C2C(C#N)=C(N)Oc3c2ccc2ccccc32)cc1 (stereo not drawn) | -4.31 |
| Cc1nnc(NC(=O)CSc2nc(-c3ccccc3Cl)ns2)s1 | 2.53 |
| O=C(Nc1ccn(Cc2ccc(F)cc2)n1)C1c2ccccc2Oc2ccccc21 | 3.94 |
| Cn1c(CNC2CCCCC2)nc2ccccc21 | 2 |
| COC(=O)c1ccc2c(c1)C(=O)N(c1ccc(Br)cc1)C2=O | -5.78 |
| O=C(/C=C/c1ccccc1)Nc1ccc([N+](=O)[O-])cc1 | 2.94 |
| CCOc1cc(C2CC(=O)Nc3ccc4ccccc4c32)cc(Br)c1O (stereo not drawn) | -4.41 |
| O=C1C(=O)c2ccccc2/C1=C/c1ccc([N+](=O)[O-])cc1 | 16.5 |

| SMILES | % Inhibition @ 10 uM [%] |
| --- | --- |
| CC(C)C[C@H](NC(=O)C1CCC(C)CC1)C(=O)NCC#N (stereo partly drawn) | -3.04 |
| Cn1c(=O)c2c(ncn2CC(=O)Nc2nncs2)n(C)c1=O | 1.84 |
| CCOC(=O)C1=C(CN2CCC(c3ccc(C)cc3)C2)NC(=O)NC1c1ccc(OC(C)C)cc1 (stereo not drawn) | 0.708 |
| Cc1csc(NC(=O)C2CCCN(c3ncnc4c3nc3n4CCCCC3)C2)n1 (stereo not drawn) | 5.92 |
| CCC(=O)c1ccc2cccc3c2c1NC(CC)=N3 | 3.46 |
| Cc1cc(C)n(-c2nnc(C)n2/N=C/c2ccccc2OCC(=O)O)n1 | -4.51 |
| Cc1ccc(C(=O)O)cc1-c1ccc(/C=C2/SC(=O)NC2=O)o1 | -2.14 |
| Cc1nnc(N2CCC(C(=O)NCc3ccccc3F)CC2)c2c(C)n(Cc3ccccc3)c(C)c12 | 1.43 |
| COc1ccccc1C(=O)Nc1ccc(CC#N)cc1 | 0.83 |
| O=C(c1cnn2c(C(F)(F)F)cc(-c3ccc4c(c3)OCO4)nc12)N1CCCCC1 | 2.25 |
| O=C(c1ccccc1Cl)N1CCN(C/C=C/c2ccccc2)CC1 | -6.21 |
| Cc1ccc(CS(=O)Cc2ccc(C(=O)N3CCN(C4CCCCC4)CC3)o2)cc1 (stereo not drawn) | 2.57 |
| Cc1ccc(S(=O)(=O)N2CCN(C/C=C/c3ccccc3)CC2)c(C)c1C | -1.04 |
| Cc1ccc(S(=O)(=O)N2CCN(C(=O)N3CCCCC3)CC2)cc1 | -3.33 |
| COc1ccc(C)cc1NC(=O)C1CCN(C(=O)c2cc(OC)c(OC)c(OC)c2)CC1 | 1.28 |
| O=C1S/C(=C\c2ccc(Br)o2)C(=O)N1CCOc1ccccc1 | 2.01 |
| Cc1ccccc1OCC(=O)Nc1sc(C)c(C)c1C(N)=O | 4.53 |
| Cc1cccn2c(=O)c3cc(C#N)c(=N)n(CCN4CCOCC4)c3nc12 | -1.47 |
| Oc1ccc(SCCCCCN2CCCCC2)cc1 | -0.712 |
| Cc1cc(F)c(F)cc1C(=O)n1nnc2ccccc21 | -8.57 |
| O=C(C1=C(O)C(=O)N(Cc2cccnc2)C1c1ccc(Br)cc1)c1ccccc1 (stereo not drawn) | 6.22 |
| O=C(CCS(=O)(=O)c1cccc2nsnc12)N1CCN(Cc2ccc3c(c2)OCO3)CC1 | 2.84 |
| FC(F)(F)c1cc(-c2cccs2)nc(N2CCN(Cc3ccccc3)CC2)n1 | -2.12 |
| CC(C)Nc1nc(OC(C(F)(F)F)C(F)(F)F)nc(N(c2ccccc2)c2ccccc2)n1 | 4.22 |
| Cc1cccc(OCC(=O)N(Cc2ccc(Cl)cc2)C2CCS(=O)(=O)C2)c1C (stereo not drawn) | -2.98 |

| SMILES | % Inhibition @ 10 uM [%] |
| --- | --- |
| O=C(O)c1ccc(-n2cc(Br)cn2)cc1 | -4.04 |
| C=CCn1c(-c2nonc2NC(=O)c2ccccc2Cl)nc2ccccc21 | 3.84 |
| O=C(CN1CCCCCC1)Nc1c2c(nc3c1CCC3)CCCC2 | -2.65 |
| Cc1ccc(/C=C(\NC(=O)c2ccccc2)C(=O)NCC2CCCO2)o1 (stereo not drawn) | 4.13 |
| CC1=C(C#N)C(c2ccccc2Cl)C2=C(O)CC(c3ccccc3)CC2=N1 (stereo not drawn) | 4 |
| CCN(CC)c1ccc(NC(=O)C2CCCC2)c(C)c1 | 2.64 |
| O=C(c1ccccc1F)N1CCN(C2CC(=O)N(c3ccc(F)cc3)C2=O)CC1 (stereo not drawn) | 0.727 |
| Cc1nn(C)cc1C(C)NC(=O)c1c(Cl)c(C)nn1C (stereo not drawn) | -2.77 |
| Oc1ncnc2sc3c(c12)CCC3 | -2.59 |
| Cc1nc2nc(Cc3ccccc3)nn2c(O)c1C | 1 |
| O=C(CN1C(=O)S/C(=C/c2cccc(Cl)c2)C1=O)Nc1ccc(F)cc1 | 0.313 |
| CC(C)c1ccc(OCC(=O)Nc2cccc3c2C(=O)NC3=O)cc1 | -1.22 |
| O=c1c(Cc2ccccc2O)c(O)nc2n1CCCS2 | -0.495 |
| O=C(CCN1CCN(CCO)CC1)Nc1cccc(Cl)c1 | 3.21 |
| COCCNC(=O)Nc1cnc2c(OC)cccc2c1O | -5.15 |
| O=C(CSc1nc2nccnc2c(=O)n1CCc1c[nH]c2ccccc12)NCCc1ccccc1 | 1.96 |
| COc1cccc(-c2nnc3sc(NC(=O)C4CCCCC4)nn23)c1 | -2.48 |
| O=C(Nc1ccc(Cl)c(Cl)c1)c1ccc(-c2ccccc2)cc1 | -3.77 |
| Cc1cccc(NC(=O)Nc2cn(C)c(=O)c3ccccc23)n1 | 0.745 |
| CC(CNC(=O)c1nnc(-c2cccc(Cl)c2)o1)c1ccccc1 (stereo not drawn) | -6.82 |
| CCc1nnc2c(NCCc3ccccc3)nc3ccccc3n12 | -4.47 |
| COc1cccc(C2C(C#N)=C(N)OC3=C2C(=O)CCC3)c1 (stereo not drawn) | -1.08 |
| O=C(Nc1cccc2ccccc12)c1ccccc1C(=O)Nc1cccc2ccccc12 | -3.65 |
| O=C(C1=C(O)C(=O)N(c2nccs2)C1c1ccc(Cl)cc1)c1ccccc1 (stereo not drawn) | -2.98 |
| O=C(CN1CC(c2ccccc2)CC1=O)Nc1ccc2ccccc2c1 (stereo not drawn) | 2.44 |

| SMILES | % Inhibition @ 10 uM [%] |
| --- | --- |
| CCOC(=O)c1c(C)c(-c2ccccc2)n(CC(=O)NC(C)(C)C)c1C | -1.66 |
| SC1=NC2=C(CCc3ccccc32)C(c2ccccc2Cl)N1 (stereo not drawn) | -4.51 |
| Cc1oc2c(c(C)cc3oc(=O)c(CC(=O)O)c(C)c32)c1-c1ccccc1 | 0.558 |
| CCN(CC)CCNC(=O)NC1CCCCC1 | 1.7 |
| O=C(/C=C/c1ccccc1Cl)Nc1ccccc1C(F)(F)F | 0.135 |
| CCCn1nnc(NC(=O)c2cccnc2Cl)n1 | -4.35 |
| Cc1ccc(S(=O)(=O)N(CC(=O)Nc2ccc(C(N)=O)cc2)c2cccc(C)c2)cc1 | 10.6 |
| Cc1ccc(OCC(=O)Nc2cccc(Cl)c2)c(C)c1 | 5.08 |
| COc1ccccc1N1CCN(S(=O)(=O)c2ccccc2)CC1 | -1.98 |
| Cc1cc(C)c2c(n1)SCC(=O)N2CC(=O)NC(C)c1ccc2c(c1)OCCO2 (stereo not drawn) | -4.15 |
| CCN(CC)C(=O)Cn1cc(SCC(=O)N(C(C)C)C(C)C)c2ccccc21 | -3.73 |
| CCOC(=O)c1cc(C)sc1NC(=O)c1ccc(C)o1 | -5.81 |
| CCOC(=O)c1c(NC(=O)c2cccc([N+](=O)[O-])c2)sc(C)c1C | 13.5 |
| O=c1oc2c(O)cccc2cc1-c1nc(-c2ccccc2)no1 | 4.23 |
| Cc1sc2c(c1C)CSC(C(=O)NCc1cccnc1)=C2 | -1.95 |
| Cc1ccn2c(-c3csc(Nc4ccc(N(C)C)cc4)n3)c(C)nc2c1 | 0.968 |
| COC(=O)c1ccc(Cl)c(-c2ccc(C(=O)N[C@@H](C[C@H](C)c3ccccc3)C(=O)NC3(C#N)CCOCC3)cc2)c1 | -3.14 |
| CN(C)CCCN1C(=O)c2cccc3cccc(c23)C1=O | -2.15 |
| Fc1ccc2[nH]c(SCc3cccnc3)nc2c1 | 7.4 |
| CC(=O)N1CCN(CCN2C(=O)c3cccc4cccc(c34)C2=O)CC1 | -2.74 |
| COc1ccc(C2C(C#N)=C(N)OC3=C2C(=O)CC(C)(C)C3)cc1CSc1ccccn1 (stereo not drawn) | 2.76 |
| CCc1nn(CC(=O)NCc2cccc(OC)c2)c(=O)c2cc3occc3n12 | 1.38 |
| CCN(CC)C(=O)Cn1ncc2c3ccccc3n(Cc3ccccc3)c2c1=O | 1.8 |
| CCOc1cc(C2CC(=O)Nc3c2c(=O)nc(SCc2cccc(C)c2)n3C)ccc1O (stereo not drawn) | -2.88 |
